# Assay results from the supplement of paper PMC8728848.
# Some of the results follow.
# B1: Di AAL2 (Agrocybe aegerita) (protein)
# chain: MTSNVITQDLPIPVASRGFADIVGFGLDGVVIGRNAVNLQPFLAVKNFAQNAGGWLTTKHVRLIADTTGTGKGDIVGFGNAGVYVSVNNGKNTFADPPKMVIANFGYDAGGWRVEKHLRYLADIRKIGRADIIGFGEKGVLVSRNNGGLNFGPATLVLKDFGYDAGGWRLDRHLRFLADVTGNGHLDIVGFGDKHVFISRNNGDGTFAPAKSVIDNFCIDAGGWKIGDHPRFVADLTGDGTADIIGCGKAGCWVALNNGGGVFGQVKLVINDFGTDKGWQAAKHPRFIADLTGNGRGDVVGFGNAGVYVALNNGDGTFQSAKLVLKDFGVQQGWTVSKHRRFVVDLTGDGCADIIGFGEKETLVSYNDGKGNFGPVKALTNDFSFSGGKWAPETTVCWMANLDSSRHPAPAPMTSNVITQDLPIPVASRGFADIVGFGLDGVVIGRNAVNLQPFLAVKNFAQNAGGWLTTKHVRLIADTTGTGKGDIVGFGNAGVYVSVNNGKNTFADPPKMVIANFGYDAGGWRVEKHLRYLADIRKIGRADIIGFGEKGVLVSRNNGGLNFGPATLVLKDFGYDAGGWRLDRHLRFLADVTGNGHLDIVGFGDKHVFISRNNGDGTFAPAKSVIDNFCIDAGGWKIGDHPRFVADLTGDGTADIIGCGKAGCWVALNNGGGVFGQVKLVINDFGTDKGWQAAKHPRFIADLTGNGRGDVVGFGNAGVYVALNNGDGTFQSAKLVLKDFGVQQGWTVSKHRRFVVDLTGDGCADIIGFGEKETLVSYNDGKGNFGPVKALTNDFSFSGGKWAPETTVCWMANLDSSRH
# Legend:
# Test in all cases: glycan array binding signal (z-score within array); higher = stronger binding
# Details in all cases: glycan notation: IUPAC condensed, linker removed
# [1] = target: Neu5Ac(a2-6)GlcNAc(b1-4)GlcNAc(b1-4)GlcNAc
# How it was run: (§1)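 Glycan array binding is given as a within-array Z-score, which can be read as non-binding when negative. The arrays, 3228 of them, came from the Consortium for Functional Glycomics database and were retained only where the protein sequence was available. Z-scores were averaged across arrays of the same protein sequence at different concentrations or buffers and across linkers.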
# Neu5Ac(a2-8)Neu5Ac = target: Neu5Ac(a2-8)Neu5Ac
# How it was run: as §1
# [2] = target: Neu5Ac(a2-8)Neu5Ac(a2-3)Gal(b1-3)GalNAc(b1-4)[Neu5Ac(a2-3)]Gal(b1-4)Glc
# How it was run: as §1
# [3] = target: Neu5Ac(a2-8)Neu5Ac(a2-3)Gal(b1-3)GalNAc(b1-4)[Neu5Ac(a2-8)Neu5Ac(a2-3)]Gal(b1-4)Glc
# How it was run: as §1
# [4] = target: Neu5Ac(a2-8)Neu5Ac(a2-3)Gal(b1-4)Glc
# How it was run: as §1
# [5] = target: Neu5Ac(a2-8)Neu5Ac(a2-3)Gal(b1-4)GlcNAc
# How it was run: as §1
# [6] = target: Neu5Ac(a2-8)Neu5Ac(a2-3)[Gal(b1-3)GalNAc(b1-4)]Gal(b1-4)Glc
# How it was run: as §1
# [7] = target: Neu5Ac(a2-8)Neu5Ac(a2-3)[GalNAc(b1-4)]Gal(b1-4)Glc
# How it was run: as §1
# [8] = target: Neu5Ac(a2-8)Neu5Ac(a2-8)Neu5Ac
# How it was run: as §1
# [9] = target: Neu5Ac(a2-8)Neu5Ac(a2-8)Neu5Ac(a2-3)Gal(b1-4)Glc
# How it was run: as §1
# [10] = target: Neu5Ac(a2-8)Neu5Ac(a2-8)Neu5Ac(a2-3)[Gal(b1-3)GalNAc(b1-4)]Gal(b1-4)Glc
# How it was run: as §1
# [11] = target: Neu5Ac(a2-8)Neu5Ac(a2-8)Neu5Ac(a2-3)[GalNAc(b1-4)]Gal(b1-4)Glc
# How it was run: as §1
# [12] = target: Neu5Ac(a2-8)Neu5Ac(a2-8)Neu5Ac(a2-8)Neu5Ac(a2-3)[GalNAc(b1-4)]Gal(b1-4)Glc
# How it was run: as §1
# [13] = target: Neu5Ac(a2-8)Neu5Gc(a2-3)Gal(b1-4)GlcNAc
# How it was run: as §1
# [14] = target: Neu5Ac(b2-6)Gal(b1-4)GlcNAc
# How it was run: as §1
# Neu5Ac(b2-6)GalNAc = target: Neu5Ac(b2-6)GalNAc
# How it was run: as §1
# [15] = target: Neu5Ac9Ac(a2-3)Gal(b1-3)GlcNAc
# How it was run: as §1
# [16] = target: Neu5Ac9Ac(a2-3)Gal(b1-4)GlcNAc
# How it was run: as §1
# [17] = target: Neu5Ac9Ac(a2-6)Gal(b1-4)GlcNAc
# How it was run: as §1
# [18] = target: Neu5Gc(a2-3)Gal(b1-3)GlcNAc
# How it was run: as §1
# [19] = target: Neu5Gc(a2-3)Gal(b1-3)[Fuc(a1-4)]GlcNAc
# How it was run: as §1
# Neu5Gc(a2-3)Gal(b1-4)Glc = target: Neu5Gc(a2-3)Gal(b1-4)Glc
# How it was run: as §1
# [20] = target: Neu5Gc(a2-3)Gal(b1-4)GlcNAc
# How it was run: as §1
# [21] = target: Neu5Gc(a2-3)Gal(b1-4)GlcNAc(b1-3)Gal(b1-4)GlcNAc(b1-2)Man(a1-3)[Neu5Gc(a2-3)Gal(b1-4)GlcNAc(b1-3)Gal(b1-4)GlcNAc(b1-2)Man(a1-6)]Man(b1-4)GlcNAc(b1-4)GlcNAc
# How it was run: as §1
# [22] = target: Neu5Gc(a2-3)Gal(b1-4)[Fuc(a1-3)]GlcNAc
# How it was run: as §1
# [23] = target: Neu5Gc(a2-6)Gal(b1-4)GlcNAc
# How it was run: as §1
# Neu5Gc(a2-6)GalNAc = target: Neu5Gc(a2-6)GalNAc
# How it was run: as §1
# [24] = target: Neu5Gc(a2-8)Neu5Ac(a2-3)Gal(b1-4)GlcNAc
# How it was run: as §1
# [25] = target: Neu5Gc(a2-8)Neu5Gc(a2-3)Gal(b1-4)GlcNAc
# How it was run: as §1
# [26] = target: Neu5Gc(a2-8)Neu5Gc(a2-3)Gal(b1-4)GlcNAc(b1-3)Gal(b1-4)GlcNAc
# How it was run: as §1
binder,measurement,setting,value
B1,glycan array binding signal (z-score),[1],-0.302
same,glycan array binding signal (z-score),Neu5Ac(a2-8)Neu5Ac,-0.107
same,glycan array binding signal (z-score),[2],-0.318
same,glycan array binding signal (z-score),[3],-0.329
same,glycan array binding signal (z-score),[4],-0.256
same,glycan array binding signal (z-score),[5],0.146
same,glycan array binding signal (z-score),[6],-0.306
same,glycan array binding signal (z-score),[7],-0.29
same,glycan array binding signal (z-score),[8],-0.273
same,glycan array binding signal (z-score),[9],-0.267
same,glycan array binding signal (z-score),[10],-0.297
same,glycan array binding signal (z-score),[11],-0.284
same,glycan array binding signal (z-score),[12],-0.279
same,glycan array binding signal (z-score),[13],-0.064
same,glycan array binding signal (z-score),[14],-0.321
same,glycan array binding signal (z-score),Neu5Ac(b2-6)GalNAc,-0.228
same,glycan array binding signal (z-score),[15],-0.194
same,glycan array binding signal (z-score),[16],-0.133
same,glycan array binding signal (z-score),[17],-0.174
same,glycan array binding signal (z-score),[18],-0.34
same,glycan array binding signal (z-score),[19],-0.325
same,glycan array binding signal (z-score),Neu5Gc(a2-3)Gal(b1-4)Glc,-0.33
same,glycan array binding signal (z-score),[20],-0.343
same,glycan array binding signal (z-score),[21],-0.31
same,glycan array binding signal (z-score),[22],-0.271
same,glycan array binding signal (z-score),[23],-0.34
same,glycan array binding signal (z-score),Neu5Gc(a2-6)GalNAc,-0.313
same,glycan array binding signal (z-score),[24],-0.329
same,glycan array binding signal (z-score),[25],-0.336
same,glycan array binding signal (z-score),[26],-0.301
